# The campaign covered roughly 310,000 compounds. About 2,200 (0.71%) showed an effect of 50% or more. The effect is printed as a negative number. This is one part of the list.
# Target: human ether-à-go-go-related gene (hERG) potassium channel (human, UniProt Q12809)
# Experiment: primary screen, population patch clamp on CHO cells stably expressing hERG
# human ether-à-go-go-related gene (hERG) potassium channel, sequence (Q12809 whole entry, looked up): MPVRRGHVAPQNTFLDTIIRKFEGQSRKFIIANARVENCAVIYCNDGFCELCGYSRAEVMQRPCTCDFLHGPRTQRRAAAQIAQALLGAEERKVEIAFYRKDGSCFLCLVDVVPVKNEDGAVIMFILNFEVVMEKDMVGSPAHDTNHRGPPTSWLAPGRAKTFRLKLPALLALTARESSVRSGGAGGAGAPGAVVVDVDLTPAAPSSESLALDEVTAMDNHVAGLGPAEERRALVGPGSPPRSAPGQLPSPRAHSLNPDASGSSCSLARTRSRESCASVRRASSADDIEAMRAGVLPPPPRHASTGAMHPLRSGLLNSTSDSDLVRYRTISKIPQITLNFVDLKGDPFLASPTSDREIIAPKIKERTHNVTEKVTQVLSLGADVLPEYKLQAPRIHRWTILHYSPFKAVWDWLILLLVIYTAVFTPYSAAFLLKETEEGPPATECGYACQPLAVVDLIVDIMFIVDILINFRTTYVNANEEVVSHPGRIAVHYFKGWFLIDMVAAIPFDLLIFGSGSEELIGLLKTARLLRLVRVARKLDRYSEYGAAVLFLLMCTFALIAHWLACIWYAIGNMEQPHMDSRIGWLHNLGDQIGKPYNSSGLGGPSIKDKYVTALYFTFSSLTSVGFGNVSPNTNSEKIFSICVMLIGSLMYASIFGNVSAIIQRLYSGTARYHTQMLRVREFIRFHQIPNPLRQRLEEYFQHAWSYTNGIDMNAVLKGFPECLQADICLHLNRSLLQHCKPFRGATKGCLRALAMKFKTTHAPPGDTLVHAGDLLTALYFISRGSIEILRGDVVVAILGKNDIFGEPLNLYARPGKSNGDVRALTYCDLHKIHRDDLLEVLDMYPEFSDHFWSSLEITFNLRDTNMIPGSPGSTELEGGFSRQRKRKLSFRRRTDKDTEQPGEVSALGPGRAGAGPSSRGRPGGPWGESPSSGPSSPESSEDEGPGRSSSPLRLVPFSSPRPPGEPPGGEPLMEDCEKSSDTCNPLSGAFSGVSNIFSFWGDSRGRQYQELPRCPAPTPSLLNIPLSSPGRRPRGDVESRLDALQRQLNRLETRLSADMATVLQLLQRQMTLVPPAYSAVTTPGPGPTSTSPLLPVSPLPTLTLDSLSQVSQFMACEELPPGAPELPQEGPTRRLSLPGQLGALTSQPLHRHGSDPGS
row,SMILES,"hERG current change (%, negative = inhibition) at 1uM [%]"
1,COc1ccc(CN2CCC(=O)NC2=O)cc1,9.39
2,Cc1ccc(C(=O)Nc2ccccc2N2CCCC2)cc1,10.5
3,O=S(=O)(NCc1ccco1)c1ccc(Cl)cc1Cl,14.8
4,COc1cc(OC)c2c(C)cc(=O)oc2c1,14.8
5,CCOc1cc(NC(=S)NCCCOC)c(OCC)cc1NC(=O)c1cccs1,10.7
6,Cc1ccc(NC(=S)NC(CO)C(O)c2ccc([N+](=O)[O-])cc2)cc1 (stereo not shown),6.48
7,CCc1cc(=O)[nH]c(SCc2ccc(C)cc2)n1,-2.05
8,Cc1cc(C)cc(Cn2ncc(Cl)c(Cl)c2=O)c1,5.38
9,COc1ccc(CNC(=O)C2CCN(C(=O)c3ccc(-c4ccccc4)cc3)CC2)cc1,8.39
10,CCOc1[nH]n(-c2ccc(Cl)cc2)c(=O)c1C=Nc1ccc(OC)cc1,7.51
11,COc1ccc(-n2c(C)cc(C=O)c2C)cc1Cl,5.55
12,COc1ccc(S(=O)(=O)N2CCC(C(=O)N3CCC(C(N)=O)CC3)CC2)cc1Cl,12.5
13,CCOC(=O)c1nn(-c2ccccc2)cc1O,15.4
14,Oc1c(C(c2ccco2)N2CCN(C(c3ccccc3)c3ccccc3)CC2)sc2ncnn12 (stereo not shown),6.31
15,CN(C(=O)CN1C(=O)S/C(=C\c2ccc(Cl)cc2)C1=O)C1CCS(=O)(=O)C1 (stereo not shown),2.35
16,Cc1ccc(-c2nc(-c3ccncc3)no2)cc1C,12.6
17,CC1=C(C#N)C(c2ccccc2)C2=C(N1)c1ccccc1C2=O (stereo not shown),8.87
18,C/C(Nc1cccc(F)c1)=C(/C#N)C(N)=O,11.5
19,Cc1nc2cc(S(=O)(=O)C(F)(F)F)ccc2s1,3.22
20,Cc1ccccc1OCc1nnc(SCC(=O)Nc2c(C)n(C)n(-c3ccccc3)c2=O)n1-c1ccccc1,1.33
21,CCO[C@H]1OC(C(=O)N2CCOCC2)=C[C@@H](c2ccc3c(c2)OCO3)[C@@H]1CCCO,12
22,COC(CNC(=O)CNC(=S)N(Cc1ccccc1)Cc1cccnc1)OC,-2.33
23,O=C(NNc1c2ccccc2nc2ccccc12)c1ccc(O)cc1O,14.4
24,CC(OC(=O)C1CCCC1)C(=O)Nc1ncc(Cl)cc1Cl (stereo not shown),11.4
25,Cc1cccc(NC(=O)CNC(=O)Cc2ccc3c(c2)OCCO3)c1C,13.5
26,CCN1CCN(C(=O)Cc2ccccc2OC)CC1,11.9
27,CCOC(=O)/C(C#N)=C1/C=CN(c2ccc(C)cc2)C=N1,-0.432
28,COc1ccccc1N(CC(=O)NCC1CCCO1)C(=O)Cn1nnc(-c2cccs2)n1 (stereo not shown),7.73

row,SMILES,"hERG current change (%, negative = inhibition) at 1uM [%]"
1,COc1ccc(C)cc1NC(=O)CN1CCN(c2ccccn2)CC1,5.33
2,Cc1[nH]c(C)c(S(=O)(=O)NCCc2ccccc2)c1C(=O)N1CCCC1,14.8
3,CCc1cc2c(=O)c(Oc3ccccc3)c(C)oc2cc1O,-19.4
4,O=C(CCN=C1NS(=O)(=O)c2ccccc21)OCc1cccc(Cl)c1,11.1
5,Cc1ccc(N(Cc2ccc(C(=O)Nc3c(C)n(C)n(-c4ccccc4)c3=O)cc2)S(C)(=O)=O)cc1C,8.53
6,CCc1ccc(C2CC(c3cccc(OC)c3)n3nc(N)nc3N2)cc1 (stereo not shown),4.1
7,COC(=O)c1cn(CCOc2ccccc2OC)c2ccccc12,13.4
8,COc1cc(OC)cc(C(=O)Nc2cccc3cccnc23)c1,19.3
9,COc1ccc(C(=O)Nc2ccc(Oc3ncnc4sc(-c5ccccc5)cc34)cc2)cc1OC,9.25
10,COc1cccc(NC(=O)C2C3C=CC4(O3)C2C(=O)N(CCN2CCCCC2)C4C(=O)NC2CCCCC2C)c1 (stereo not shown),19.2
11,CC(=O)Nc1ccc(-c2csc(NC(=O)Cc3ccccc3F)n2)cc1,5.85
12,COc1ccc(Nc2nnc(SC(C(=O)Nc3cc(C)ccc3C)c3ccccc3)s2)cc1 (stereo not shown),3.8
13,NS(=O)(=O)c1cccc(NC(=O)CCCC2CCCCC2)c1,7.26
14,COc1cccc(N(C(=O)Cn2nnc(-c3ccc(C)o3)n2)C(C(=O)NC2CCCC2)c2ccncc2)c1 (stereo not shown),14.5
15,O=C1CC(=O)N(c2ccc(Cl)cc2Cl)C(=O)N1,10.3
16,CN(C)/C=C(\C=N\OCc1ccc(Cl)cc1Cl)C(=O)Nc1ccc(Cl)c(Cl)c1,12.5
17,COc1ccc(-c2cc(C(=O)NCC3CCCO3)on2)cc1OC (stereo not shown),9.24
18,CC(C)CNc1cc(N2CCCC2)ccc1[N+](=O)[O-],3.07
19,Cc1sc2nc(COC(=O)c3c(F)cccc3F)[nH]c(=O)c2c1C,3.23
20,COc1ccc(CN2CCC(n3nccc3NC(=O)c3cccc(F)c3)CC2)cc1O,-81.5
21,COc1cc2nc(N(CCCN(C)C)C(=O)c3ccc(C(=O)c4ccccc4)cc3)sc2cc1OC.Cl,-26
22,COc1ccc(Cl)cc1NC(=O)CN1CCC(NC(=O)C2CC2)CC1,-19.1
23,COC(=O)c1sc(N2C(=O)C(O)=C(C(=O)c3ccc(C)o3)C2c2cccs2)nc1C (stereo not shown),2.84
24,CCOc1ccc(S(=O)(=O)NC2CCCCCC2)cc1,15.8
25,CC(=O)c1ccc(S(=O)(=O)Nc2ccc(-n3c(C)nc4ccccc4c3=O)cc2)cc1,-13.2
26,O=C(N/N=C/c1ccccc1)c1sccc1OCc1ccc(F)cc1,5.11
27,Cc1cc(C)cc(NS(=O)(=O)c2ccc(NC(=O)c3ccccc3C(=O)O)cc2)c1,11

# — publication PMC4336329 (PLoS ONE, 2015)
